From PubChem BioAssay AID504333 (National Center for Advancing Translational Sciences (NCATS), 2011)
Out of some 360,000 compounds screened, about 16,000 (4.4%) were called active. Inconclusive results, whose numbers are uncertain, are shown with a selection of clear calls. Calls come from the whole dose curve; as a rule, active = well fitted inhibition curve with a large enough effect; inconclusive = small, poorly fitted or top-dose-only effect; inactive = no such curve, though single readings can be large or run the other way. Potencies of inconclusive entries are doubtful fits and often do not repeat.
% is set by controls: 0 for no effect and ±100 for the full control effect; potency is the fitted concentration of half-maximal effect; tags give direction and shape of the fitted curve.
Note: nearly all actives have a fitted effect of over 60% in size.

Each molecule was assayed against Bromodomain adjacent to zinc finger domain protein 2B (Homo sapiens) (UniProt Q9UIF8) (assay: qHTS Assay for Inhibitors of BAZ2B). Conditions: AlphaScreen BAZ2B-H3K14Ac peptide displacement; activity change, negative = inhibition: at 114 µM (top of the series) unless noted.
UniProt Q9UIF8, sequence (Q9UIF8 whole entry, looked up, the tested form may be a part): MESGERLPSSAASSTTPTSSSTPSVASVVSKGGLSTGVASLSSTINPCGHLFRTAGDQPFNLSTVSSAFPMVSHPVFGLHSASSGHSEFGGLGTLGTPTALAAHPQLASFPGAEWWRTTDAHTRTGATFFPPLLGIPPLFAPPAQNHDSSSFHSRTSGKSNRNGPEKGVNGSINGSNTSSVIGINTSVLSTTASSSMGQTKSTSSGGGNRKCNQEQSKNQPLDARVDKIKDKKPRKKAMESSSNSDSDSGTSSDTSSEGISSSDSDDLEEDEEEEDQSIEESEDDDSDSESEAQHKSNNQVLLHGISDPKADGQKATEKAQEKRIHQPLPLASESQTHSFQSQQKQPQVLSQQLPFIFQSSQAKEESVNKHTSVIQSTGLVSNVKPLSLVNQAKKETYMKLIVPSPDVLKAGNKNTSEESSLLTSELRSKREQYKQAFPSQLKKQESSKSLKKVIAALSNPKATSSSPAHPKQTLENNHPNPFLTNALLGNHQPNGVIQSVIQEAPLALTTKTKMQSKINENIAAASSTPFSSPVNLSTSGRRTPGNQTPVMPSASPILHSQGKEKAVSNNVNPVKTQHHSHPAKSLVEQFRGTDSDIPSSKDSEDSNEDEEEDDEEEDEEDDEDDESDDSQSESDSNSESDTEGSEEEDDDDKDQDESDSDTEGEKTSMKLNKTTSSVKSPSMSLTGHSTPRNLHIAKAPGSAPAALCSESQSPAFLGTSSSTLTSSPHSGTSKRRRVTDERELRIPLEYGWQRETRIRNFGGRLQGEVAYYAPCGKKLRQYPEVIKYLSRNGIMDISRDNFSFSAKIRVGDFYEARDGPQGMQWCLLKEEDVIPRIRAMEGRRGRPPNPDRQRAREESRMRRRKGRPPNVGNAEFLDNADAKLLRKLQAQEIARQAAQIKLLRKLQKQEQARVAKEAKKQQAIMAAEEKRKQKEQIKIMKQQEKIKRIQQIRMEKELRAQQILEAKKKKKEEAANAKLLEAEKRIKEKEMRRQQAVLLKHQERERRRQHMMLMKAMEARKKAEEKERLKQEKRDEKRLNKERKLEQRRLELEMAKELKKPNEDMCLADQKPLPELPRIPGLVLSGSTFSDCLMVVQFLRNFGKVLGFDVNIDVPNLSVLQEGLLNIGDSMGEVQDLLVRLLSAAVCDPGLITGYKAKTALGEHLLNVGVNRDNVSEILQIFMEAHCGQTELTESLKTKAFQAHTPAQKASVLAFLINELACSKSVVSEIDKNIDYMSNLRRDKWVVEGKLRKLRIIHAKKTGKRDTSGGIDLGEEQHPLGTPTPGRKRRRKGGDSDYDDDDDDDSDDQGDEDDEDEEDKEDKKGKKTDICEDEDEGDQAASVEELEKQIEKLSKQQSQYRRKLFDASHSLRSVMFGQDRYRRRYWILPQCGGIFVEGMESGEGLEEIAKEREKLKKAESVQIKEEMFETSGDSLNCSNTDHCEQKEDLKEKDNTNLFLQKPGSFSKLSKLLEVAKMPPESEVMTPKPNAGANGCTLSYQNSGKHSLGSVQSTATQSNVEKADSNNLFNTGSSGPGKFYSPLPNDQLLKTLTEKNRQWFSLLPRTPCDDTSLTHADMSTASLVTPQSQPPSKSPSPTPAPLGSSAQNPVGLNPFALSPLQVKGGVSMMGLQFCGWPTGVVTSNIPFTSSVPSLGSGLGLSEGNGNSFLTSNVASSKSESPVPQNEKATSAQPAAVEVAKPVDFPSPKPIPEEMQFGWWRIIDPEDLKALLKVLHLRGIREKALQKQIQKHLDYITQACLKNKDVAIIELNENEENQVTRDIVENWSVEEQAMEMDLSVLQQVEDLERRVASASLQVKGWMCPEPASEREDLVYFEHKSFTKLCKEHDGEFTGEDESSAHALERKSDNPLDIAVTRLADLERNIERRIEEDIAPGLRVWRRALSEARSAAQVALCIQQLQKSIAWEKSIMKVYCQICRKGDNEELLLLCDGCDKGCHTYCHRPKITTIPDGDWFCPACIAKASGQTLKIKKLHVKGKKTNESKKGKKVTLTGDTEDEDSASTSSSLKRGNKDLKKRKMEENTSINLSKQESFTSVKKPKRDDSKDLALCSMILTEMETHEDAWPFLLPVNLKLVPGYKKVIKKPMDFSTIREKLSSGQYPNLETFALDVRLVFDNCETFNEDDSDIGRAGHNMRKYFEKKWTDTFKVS
Procedure, shortened: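 Inhibition is scored as reduced AlphaScreen emission. The BAZ2B/b-H3(5-23)K14Ac complex (50 nM each) in PBS pH 7.4, 0.01% Tween-20 meets compound (up to 110 uM) for 30 min at RT before bead addition.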
With Cc1sc[n+](CC(=O)c2ccc(Br)cc2)c1C the “activity change, negative = inhibition” value was inactive: -18.5%. O=C(Nc1cc2c(cc1C(=O)c1ccccc1Br)OCCO2)c1ccccc1 was tested, and the Potency was inconclusive: 79.4 µM [inhibitor, single point]. In the case of O=[N+]([O-])c1cccc(-c2cn3nc(-c4ccccc4)c(-c4ccccc4)nc3n2)c1, the “activity change, negative = inhibition” value is reported as inactive: 12.5%. With COc1ccc(C)cc1S(=O)(=O)N(CC(=O)O)c1ccc(F)cc1 the Potency was inconclusive: 89.1 µM [inhibitor, single point]. In the case of C=CCN(CC=C)C(=O)C[n+]1ccc(C(N)=O)cc1, the “activity change, negative = inhibition” value is reported as inactive: 3.33%. Cc1ccc(NC(=O)CN(C)Cc2ccc(F)cc2)c([N+](=O)[O-])c1 was tested, and the Potency was inconclusive: 20 µM [inhibitor, full curve]. In the case of COc1cc2c(cc1NC(=O)Nc1ccccc1)oc1ccccc12, the Potency is reported as inconclusive: 89.1 µM [inhibitor, single point]. With CC(c1n[nH]c(=S)n1-c1ccccc1)N1CCCCC1 (centres undefined) the “activity change, negative = inhibition” value was inactive: -21%. In the case of Cc1cc(C)c2c(N)c(C(=O)N3CCCCCC3)sc2n1, the Potency is reported as inconclusive: 100 µM [inhibitor, single point]. For CN1CCC(=NNC(=O)C(=O)NC(C)(C)C)CC1, the Potency was inconclusive: 79.4 µM [inhibitor, single point]. Fc1ccc(COc2cccc(CNCc3ccncc3)c2)cc1 was tested, and the Potency was inconclusive: 79.4 µM [inhibitor, single point]. With COc1ccc(OC)c(NC(=O)c2cccc3c2C(=O)N(C2CCCCC2)C3)c1 the Potency was inconclusive: 20 µM [inhibitor, full curve, poor fit]. Cn1c(=O)c2ncn(CC(=O)NC3CCCCCC3)c2n(C)c1=O was tested, and the “activity change, negative = inhibition” value was inactive: -3.59%. With CCN(CC)C(=O)c1ccccc1NC(=O)CN1C(=O)c2ccccc2C1=O the “activity change, negative = inhibition” value was inactive: -9.93%. With CCOCCCNC(=O)CN1C(=O)/C(=C/c2ccccc2C)Sc2ccccc21 the Potency was inconclusive: 35.5 µM [inhibitor, partial curve, poor fit]. COc1ccc(NC(=O)/C=C/c2ccc(C)o2)cc1S(=O)(=O)N1CCOCC1 was tested, and the Potency was inconclusive: 100 µM [inhibitor, single point]. With COc1ccc2[nH]cc(CCNS(=O)(=O)Cc3ccccc3)c2c1 the Potency was inconclusive: 89.1 µM [inhibitor, single point]. For CSc1nc(-c2ccccc2)c(C#N)c(=O)[nH]1, the “activity change, negative = inhibition” value was inactive: -13.2%. In the case of COc1cccc(C2c3[nH]c4ccccc4c3CCN2CCCn2cccn2)c1 (centres undefined), the Potency is reported as inconclusive: 39.8 µM [inhibitor, partial curve]. With CC1CN(C2CCN(S(=O)(=O)c3ccc4ccccc4c3)CC2)CC(C)O1 (centres undefined) the Potency was active: 44.7 µM. With Cc1ccc(CN2CCN(/N=C/c3cc([N+](=O)[O-])ccc3Cl)CC2)cc1 the Potency was active: 31.6 µM. With CNC(=O)c1cc(C(=O)c2ccc(F)cc2Cl)c[nH]1 the Potency was inconclusive: 56.2 µM [inhibitor, single point]. In the case of COC(=O)NNC(=S)NCc1ccc(C)cc1, the “activity change, negative = inhibition” value is reported as inactive: 10%. COc1cc(/C=C2\SC(N3CCC(C)CC3)=NC2=O)ccc1O was tested, and the “activity change, negative = inhibition” value was inactive: -13.5%. With Cn1ccnc1C(=O)c1ccc(NN)c([N+](=O)[O-])c1 the Potency was inconclusive: 39.8 µM [inhibitor, partial curve]. In the case of CN(Cc1nccn1C)C(=O)CC1C(=O)NCCN1Cc1cccc(Oc2ccccc2)c1 (centres undefined), the Potency is reported as inconclusive: 79.4 µM [inhibitor, single point]. For O=C(c1ccco1)N1CCCN(C(=O)c2ccco2)CC1, the “activity change, negative = inhibition” value was inactive: 1.71%. CCOc1cccc(C2C(C(=O)c3ccco3)=C(O)C(=O)N2c2nnc(C)s2)c1 (centres undefined) was tested, and the Potency was inconclusive: 89.1 µM [inhibitor, single point]. With Cc1ccc([N+](=O)[O-])cc1S(=O)(=O)N(C(=O)c1ccncc1)c1ccc2oc3c(c2c1)CCCC3 the Potency was inconclusive: 79.4 µM [inhibitor, single point]. O=c1c2ccccc2cnn1Cc1n[nH]c(=S)n1C1CC2CCC1C2 (centres undefined) was tested, and the “activity change, negative = inhibition” value was inactive: -8.55%. With O=S(=O)(c1ccc(F)cc1)N(CC(O)Cn1c2ccccc2c2ccccc21)c1ccccc1 (centres undefined) the “activity change, negative = inhibition” value was inactive: 2.22% [at 57.1 µM]. For CSc1nsc(SCC(=O)Nc2ccccc2C(=O)O)n1, the Potency was inconclusive: 79.4 µM [inhibitor, single point]. N#Cc1nc(-c2ccco2)oc1N1CCN(C(c2ccccc2)c2ccccc2)CC1 was tested, and the Potency was inconclusive: 6.31 µM [inhibitor, full curve]. CCOc1cc(/C=C2\SC(=Nc3ccccc3)N(c3ccccc3)C2=O)ccc1OCC(=O)O was tested, and the Potency was inconclusive: 39.8 µM [inhibitor, partial curve]. For CN(C)CCCN(C(=O)c1ccc(S(=O)(=O)N2CCCC2)cc1)c1nc2ccc(Br)cc2s1, the Potency was inconclusive: 44.7 µM [inhibitor, partial curve]. COc1ccc(N=Cc2c(O)[nH]c3ccccc23)cc1OC was tested, and the Potency was inconclusive: 79.4 µM [inhibitor, single point]. In the case of Cc1nc(N2CCN(C(=O)c3ccco3)CC2)nc2c1C(=O)CC(C)C2 (centres undefined), the “activity change, negative = inhibition” value is reported as inactive: -9.09%. For O=c1oc2cc(Oc3c([N+](=O)[O-])cc(C(F)(F)F)cc3[N+](=O)[O-])ccc2c2c1CCCC2, the Potency was inconclusive: 31.6 µM [inhibitor, full curve, poor fit]. O=C(COc1ccccc1)Nc1ccc(Cl)cc1Cl was tested, and the “activity change, negative = inhibition” value was inactive: 9.65%. In the case of CCOc1ccccc1NC1=C(Cl)C(=O)N(c2ccc(OC)cc2)C1=O, the Potency is reported as inconclusive: 15.8 µM [inhibitor, full curve]. With CC(CN1CCN(C/C=C/c2ccccc2)CC1)c1ccccc1 (centres undefined) the Potency was inconclusive: 89.1 µM [inhibitor, single point]. With COC(=O)N/N=C(C)\C=C\c1ccco1 the “activity change, negative = inhibition” value was inactive: -3.12%. With O=C(CSc1nnnn1-c1ccccc1)c1cc2ccccc2oc1=O the “activity change, negative = inhibition” value was inactive: 0.734%. In the case of Cc1c(C(=O)NC2CCN(Cc3ccccc3)C2)oc2ccc(Br)cc12 (centres undefined), the Potency is reported as inconclusive: 56.2 µM [inhibitor, single point]. With CCOc1cc(NC(=S)NC)c(OCC)cc1NC(=O)c1ccco1 the Potency was inconclusive: 50.1 µM [inhibitor, partial curve]. Cc1ccc([N+](=O)[O-])cc1NC(=O)/C=C/C(=O)O was tested, and the Potency was active: 79.4 µM. Cc1ccc(-c2ccccc2)n1-c1cccc(C(=O)O)c1 was tested, and the “activity change, negative = inhibition” value was inactive: -35.4%. For CC1(NC(=O)N2CCOCC2)CCS(=O)(=O)C1 (centres undefined), the Potency was inconclusive: 89.1 µM [inhibitor, single point]. In the case of Nc1nc2ccccc2n1C(=O)c1cccs1, the Potency is reported as inconclusive: 10 µM [inhibitor, partial curve, poor fit]. For CCOC(=O)N1CCc2c(sc(NCc3ccc(N(CC)CC)cc3)c2C(=O)Nc2cc(OC)ccc2OC)C1, the Potency was active: 7.94 µM. With COc1ccccc1C1C(C(=O)c2cc3ccccc3o2)=C(O)C(=O)N1CCN(C)C (centres undefined) the Potency was inconclusive: 89.1 µM [inhibitor, single point]. COc1ccc(NC(=O)COC(=O)c2cc3c(s2)CCC3)cc1 was tested, and the Potency was active: 79.4 µM. For Nc1scc(-c2ccncc2)c1Cl, the Potency was inconclusive: 89.1 µM [inhibitor, single point]. In the case of CC[N+]1(CC)CC2CCC(C)(C1)C2(C)C (centres undefined), the “activity change, negative = inhibition” value is reported as inactive: -11.5%. In the case of CC(C)c1ccc(/C=N/N2CCCCC2)cc1, the Potency is reported as active: 31.6 µM. In the case of Cc1ccc(Nc2nc(N)c([N+](=O)[O-])c(NCc3ccco3)n2)cc1, the “activity change, negative = inhibition” value is reported as inactive: -9.79%. In the case of O=C(Nc1cccc(Cl)c1)N1CC2CCCN2c2ccccc21 (centres undefined), the Potency is reported as active: 17.8 µM. In the case of CCc1ccc(/C=C2/C(=O)N(C)C(=S)N2CC(=O)OC)s1, the “activity change, negative = inhibition” value is reported as inactive: -22.3%. For CC(C)CNC(=O)C1CCN(Cc2ccc(OCc3ccccc3)cc2)CC1, the Potency was inconclusive: 89.1 µM [inhibitor, single point]. With COc1ccc(NC(=S)N2CCC(C(O)(c3ccccc3)c3ccccc3)CC2)cc1 the Potency was inconclusive: 70.8 µM [inhibitor, single point]. Cc1ccc(-n2ncc3c(NCc4ccco4)ncnc32)c(C)c1 was tested, and the Potency was inconclusive: 89.1 µM [inhibitor, single point]. For O=C(CSc1n[nH]c(=O)[nH]c1=O)c1ccccc1, the Potency was inconclusive: 89.1 µM [inhibitor, single point]. COc1ccc(-c2occ(C(=O)O)c2C(=O)O)cc1 was tested, and the Potency was inconclusive: 89.1 µM [inhibitor, single point]. With Cc1nnc(N/N=C/c2ccc([N+](=O)[O-])cc2)n1N the Potency was inconclusive: 56.2 µM [inhibitor, partial curve]. With CCC(CO)n1c(SCc2cc([N+](=O)[O-])cc3c2OCOC3)nc2ccccc2c1=O (centres undefined) the Potency was inconclusive: 44.7 µM [inhibitor, partial curve]. With O=C(CC(=O)NCc1cccnc1)NCc1cccnc1 the Potency was inconclusive: 70.8 µM [inhibitor, single point]. O=C(Nc1cccc(Br)c1)N1CCN2CCCCC2C1 (centres undefined) was tested, and the Potency was inconclusive: 89.1 µM [inhibitor, single point]. O=C(NCCNC(=O)c1cc(OCC(F)(F)F)ccc1OCC(F)(F)F)Nc1cccc(C(F)(F)F)c1 was tested, and the Potency was inconclusive: 70.8 µM [inhibitor, single point]. Cc1ccc(C2C3=C(CCCC3=O)Nc3nc(SCC(=O)NCc4ccco4)[nH]c(=O)c32)cc1 (centres undefined) was tested, and the “activity change, negative = inhibition” value was inactive: -15.1%. With O=c1cnn(Cc2c(Cl)cccc2Cl)c2ccccc12 the Potency was inconclusive: 89.1 µM [inhibitor, single point]. Cc1cc(NC(=O)c2cncc(Br)c2)n(-c2ccccn2)n1 was tested, and the Potency was active: 50.1 µM. Cc1ccc(-c2cc(C(=O)N3CCN(c4ccccc4O)CC3)c3ccccc3n2)cc1 was tested, and the “activity change, negative = inhibition” value was inactive: -36.2%. c1ccc(NCCCNc2ccccc2)cc1 was tested, and the Potency was active: 50.1 µM. In the case of CCCc1nc2ccccc2c(=O)n1NC(=O)c1c(O)c2ccccc2[nH]c1=O, the Potency is reported as inconclusive: 79.4 µM [inhibitor, single point].
